{
  "source": "the supplement of paper PMC12645437",
  "about": "“Orthogonal IMiD-Degron Pairs Induce Selective Protein Degradation in Cells” (ACS Chemical Biology, 2025)",
  "note": "The other results are listed elsewhere or left out.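 Further: jurkat cells carrying a lentiviral library of mutant zinc finger degrons fused to EGFP plus mCherry, mCherry+ cells FACS sorted, degron abundance counted by next-generation sequencing.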",
  "data": [
    {"molecular_target": "no compound (DMSO)", "assay": "log2 fold change of degron read counts, EGFP-low vs EGFP+ sorted cells; higher = lower degron-EGFP level without compound (poor expression or instability)", "settings": "compound: DMSO control; 18 h", "values": [
      {"sequence": "FSCEICGAWFTQKGNLLRHIKL", "log2 fold change of degron read counts": -0.914},
      {"sequence": "FICSVCGHYFTQKGNLLRHIKL", "log2 fold change of degron read counts": 0.255},
      {"sequence": "FTCEVCGAIFTQKGNLLRHIKL", "log2 fold change of degron read counts": -1.64},
      {"sequence": "FCCPQCGAIFTQKGNLLRHIKL", "log2 fold change of degron read counts": -0.0876},
      {"sequence": "FICSVCGHQFTQKGNLLRHIKL", "log2 fold change of degron read counts": -1.64},
      {"sequence": "FRCPICGRLFTQKGNLLRHIKL", "log2 fold change of degron read counts": 0.267},
      {"sequence": "LGCNQCGFACTQKGNLLRHIKL", "log2 fold change of degron read counts": 1.01},
      {"sequence": "FTCPQCGAIFTQKGNLLRHIKL", "log2 fold change of degron read counts": -0.768},
      {"sequence": "FECNQCGRPFTQKGNLLRHIKL", "log2 fold change of degron read counts": -0.992},
      {"sequence": "LHCEICGFRCTQKGNLLRHIKL", "log2 fold change of degron read counts": -0.207},
      {"sequence": "FQCPVCGAVFTQKGNLLRHIKL", "log2 fold change of degron read counts": 0.126},
      {"sequence": "FKCDQCGASFTQKGNLLRHIKL", "log2 fold change of degron read counts": -2.05},
      {"sequence": "LHCNQCGFICTQKGNLLRHIKL", "log2 fold change of degron read counts": 0.906},
      {"sequence": "FICEICGRLFTQKGNLLRHIKL", "log2 fold change of degron read counts": -0.39},
      {"sequence": "FQCPVCGAMFTQKGNLLRHIKL", "log2 fold change of degron read counts": 0.115},
      {"sequence": "FTCEQCGAYFTQKGNLLRHIKL", "log2 fold change of degron read counts": -0.909},
      {"sequence": "FRCPVCGATFTQKGNLLRHIKL", "log2 fold change of degron read counts": -1.04},
      {"sequence": "FMCNICGARFTQKGNLLRHIKL", "log2 fold change of degron read counts": -0.236},
      {"sequence": "FFCPQCGATFTQKGNLLRHIKL", "log2 fold change of degron read counts": -0.0669},
      {"sequence": "FKCEQCGAGFTQKGNLLRHIKL", "log2 fold change of degron read counts": -2.33},
      {"sequence": "FECNQCGRSFTQKGNLLRHIKL", "log2 fold change of degron read counts": -0.78},
      {"sequence": "FECNICGAVFTQKGNLLRHIKL", "log2 fold change of degron read counts": -1.13},
      {"sequence": "FDCSVCGHKFTQKGNLLRHIKL", "log2 fold change of degron read counts": -0.107},
      {"sequence": "FMCEICGHHFTQKGNLLRHIKL", "log2 fold change of degron read counts": -1.59},
      {"sequence": "FKCNVCGAPFTQKGNLLRHIKL", "log2 fold change of degron read counts": 0.12},
      {"sequence": "FKCNQCGHFFTQKGNLLRHIKL", "log2 fold change of degron read counts": -0.622},
      {"sequence": "FWCNQCGHNFTQKGNLLRHIKL", "log2 fold change of degron read counts": 1.4},
      {"sequence": "FKCDQCGAGFTQKGNLLRHIKL", "log2 fold change of degron read counts": -1.56},
      {"sequence": "FNCEICGAFFTQKGNLLRHIKL", "log2 fold change of degron read counts": -0.835},
      {"sequence": "LYCEICGFLCTQKGNLLRHIKL", "log2 fold change of degron read counts": 1.51},
      {"sequence": "FKCPQCGAPFTQKGNLLRHIKL", "log2 fold change of degron read counts": -1.86},
      {"sequence": "FECEICGRIFTQKGNLLRHIKL", "log2 fold change of degron read counts": -1.68},
      {"sequence": "FTCEICGHWFTQKGNLLRHIKL", "log2 fold change of degron read counts": -0.613},
      {"sequence": "FMCNQCGRSFTQKGNLLRHIKL", "log2 fold change of degron read counts": -0.771},
      {"sequence": "FDCNQCGHPFTQKGNLLRHIKL", "log2 fold change of degron read counts": 0.395},
      {"sequence": "FFCNQCGAAFTQKGNLLRHIKL", "log2 fold change of degron read counts": 0.087},
      {"sequence": "FLCPICGHQFTQKGNLLRHIKL", "log2 fold change of degron read counts": -1.52},
      {"sequence": "LMCNQCGFFCTQKGNLLRHIKL", "log2 fold change of degron read counts": 1.79},
      {"sequence": "FLCPICGHDFTQKGNLLRHIKL", "log2 fold change of degron read counts": -0.0429},
      {"sequence": "LGCPICGFGCTQKGNLLRHIKL", "log2 fold change of degron read counts": 1.06},
      {"sequence": "FCCPICGAIFTQKGNLLRHIKL", "log2 fold change of degron read counts": 0.583},
      {"sequence": "FTCEVCGAGFTQKGNLLRHIKL", "log2 fold change of degron read counts": -1.51},
      {"sequence": "FQCNQCGAMFTQKGNLLRHIKL", "log2 fold change of degron read counts": -0.849},
      {"sequence": "FLCNQCGHFFTQKGNLLRHIKL", "log2 fold change of degron read counts": 1.02},
      {"sequence": "LKCNQCGFQCTQKGNLLRHIKL", "log2 fold change of degron read counts": -0.39},
      {"sequence": "LCCNQCGFPCTQKGNLLRHIKL", "log2 fold change of degron read counts": 0.557},
      {"sequence": "FHCNVCGAFFTQKGNLLRHIKL", "log2 fold change of degron read counts": -0.165},
      {"sequence": "FKCPICGARFTQKGNLLRHIKL", "log2 fold change of degron read counts": -1.07},
      {"sequence": "LRCPICGFMCTQKGNLLRHIKL", "log2 fold change of degron read counts": 1.29},
      {"sequence": "FYCDVCGAWFTQKGNLLRHIKL", "log2 fold change of degron read counts": 0.623}
    ]}
  ]
}
